# Laboratory results published in the supplement of paper PMC8728848.
# Some of the results follow.
# B1: RVL (Remusatia vivipara), B5LYJ9 (protein)
# chain: MAKLLLFLLPAILGLLVPRSAVALGTNYLLSGQTLDTEGHLKNGDFDLVMQDDCNLVLYNGNWQSNTANNGRDCKLTLTDYGELVIKNGDGSTVWKSGAQSVKGNYAAVVHPDGRLVVLGPSVFKIDPWVRGLNSLRFRNIPFTNNLLFSGQVLYGDGRLTAKNHQLVMQGDCNLVLYGGKYGWQSNTHGNGEHCFLRLNHKGELIIKDDDFKTIWSSRSSSKQGEYVLILQDDGFGVIYGPAIFETSSKRSIAAS
# Columns and labels:
# Experiment in all cases: glycan array binding signal (z-score within array); higher = stronger binding
# Details in all cases: glycan notation: IUPAC condensed, linker removed
# [1] = target: Neu5Ac(a2-3)Gal6S(b1-4)GlcNAc
# Outline: (§1)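 The Consortium for Functional Glycomics database supplied 3228 glycan arrays, of which those lacking an available protein sequence were dropped. The binding signal, a within-array Z-score, was averaged across arrays of the same protein sequence and across linkers. Negative scores can be read as non-binding.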
# [2] = target: Neu5Ac(a2-3)Gal6S(b1-4)[Fuc(a1-3)]GlcNAc
# Outline: as §1
# Neu5Ac(a2-3)GalNAc = target: Neu5Ac(a2-3)GalNAc
# Outline: as §1
# [3] = target: Neu5Ac(a2-3)GalNAc(b1-4)GlcNAc
# Outline: as §1
# [4] = target: Neu5Ac(a2-3)[GalNAc(b1-4)]Gal(b1-4)Glc
# Outline: as §1
# [5] = target: Neu5Ac(a2-3)[GalNAc(b1-4)]Gal(b1-4)GlcNAc
# Outline: as §1
# [6] = target: Neu5Ac(a2-3)[GalNAc(b1-4)]Gal(b1-4)GlcNAc(b1-3)GalNAc
# Outline: as §1
# [7] = target: Neu5Ac(a2-3)[Neu5Ac(a2-6)]GalNAc
# Outline: as §1
# Neu5Ac(a2-6)Gal = target: Neu5Ac(a2-6)Gal
# Outline: as §1
# [8] = target: Neu5Ac(a2-6)Gal(b1-3)GlcNAc(b1-3)[Gal(b1-4)GlcNAc(b1-6)]Gal(b1-4)Glc
# Outline: as §1
# Neu5Ac(a2-6)Gal(b1-4)Glc = target: Neu5Ac(a2-6)Gal(b1-4)Glc
# Outline: as §1
# [9] = target: Neu5Ac(a2-6)Gal(b1-4)GlcNAc
# Outline: as §1
# [10] = target: Neu5Ac(a2-6)Gal(b1-4)GlcNAc(b1-2)Man(a1-3)Man(b1-4)GlcNAc(b1-4)GlcNAc
# Outline: as §1
# [11] = target: Neu5Ac(a2-6)Gal(b1-4)GlcNAc(b1-2)Man(a1-3)[Gal(b1-4)GlcNAc(b1-2)Man(a1-6)]Man(b1-4)GlcNAc(b1-4)GlcNAc
# Outline: as §1
# [12] = target: Neu5Ac(a2-6)Gal(b1-4)GlcNAc(b1-2)Man(a1-3)[GlcNAc(b1-2)Man(a1-6)]Man(b1-4)GlcNAc(b1-4)GlcNAc
# Outline: as §1
# [13] = target: Neu5Ac(a2-6)Gal(b1-4)GlcNAc(b1-2)Man(a1-3)[GlcNAc(b1-2)Man(b1-4)GlcNAc(b1-2)Man(a1-6)]Man(b1-4)GlcNAc(b1-4)GlcNAc
# Outline: as §1
# [14] = target: Neu5Ac(a2-6)Gal(b1-4)GlcNAc(b1-2)Man(a1-3)[Man(a1-6)]Man(b1-4)GlcNAc(b1-4)GlcNAc
# Outline: as §1
# [15] = target: Neu5Ac(a2-6)Gal(b1-4)GlcNAc(b1-2)Man(a1-3)[Neu5Ac(a2-6)Gal(b1-4)GlcNAc(b1-2)Man(a1-6)]Man(b1-4)GlcNAc(b1-4)GlcNAc
# Outline: as §1
# [16] = target: Neu5Ac(a2-6)Gal(b1-4)GlcNAc(b1-2)Man(a1-3)[Neu5Ac(a2-6)Gal(b1-4)GlcNAc(b1-2)Man(a1-6)]Man(b1-4)GlcNAc(b1-4)[Fuc(a1-6)]GlcNAc
# Outline: as §1
# [17] = target: Neu5Ac(a2-6)Gal(b1-4)GlcNAc(b1-2)Man(a1-6)Man(b1-4)GlcNAc(b1-4)GlcNAc
# Outline: as §1
# [18] = target: Neu5Ac(a2-6)Gal(b1-4)GlcNAc(b1-2)Man(a1-6)[Gal(b1-4)GlcNAc(b1-2)Man(a1-3)]Man(b1-4)GlcNAc(b1-4)GlcNAc
# Outline: as §1
# [19] = target: Neu5Ac(a2-6)Gal(b1-4)GlcNAc(b1-2)Man(a1-6)[GlcNAc(b1-2)Man(a1-3)]Man(b1-4)GlcNAc(b1-4)GlcNAc
# Outline: as §1
# [20] = target: Neu5Ac(a2-6)Gal(b1-4)GlcNAc(b1-2)Man(a1-6)[Man(a1-3)]Man(b1-4)GlcNAc(b1-4)GlcNAc
# Outline: as §1
# [21] = target: Neu5Ac(a2-6)Gal(b1-4)GlcNAc(b1-3)Gal(b1-3)GlcNAc
# Outline: as §1
# [22] = target: Neu5Ac(a2-6)Gal(b1-4)GlcNAc(b1-3)Gal(b1-4)GlcNAc
# Outline: as §1
# [23] = target: Neu5Ac(a2-6)Gal(b1-4)GlcNAc(b1-3)Gal(b1-4)GlcNAc(b1-3)Gal(b1-4)GlcNAc
# Outline: as §1
# [24] = target: Neu5Ac(a2-6)Gal(b1-4)GlcNAc(b1-3)Gal(b1-4)[Fuc(a1-3)]GlcNAc(b1-3)Gal(b1-4)[Fuc(a1-3)]GlcNAc
# Outline: as §1
# [25] = target: Neu5Ac(a2-6)Gal(b1-4)GlcNAc(b1-3)GalNAc
# Outline: as §1
# [26] = target: Neu5Ac(a2-6)Gal(b1-4)GlcNAc(b1-3)[Neu5Ac(a2-6)Gal(b1-4)GlcNAc(b1-6)]GalNAc
# Outline: as §1
# [27] = target: Neu5Ac(a2-6)Gal(b1-4)GlcNAc(b1-6)GalNAc
# Outline: as §1
# [28] = target: Neu5Ac(a2-6)Gal(b1-4)GlcNAc(b1-6)[Gal(b1-3)GlcNAc(b1-3)]Gal(b1-4)Glc
# Outline: as §1
# [29] = target: Neu5Ac(a2-6)Gal(b1-4)GlcNAc6S
# Outline: as §1
# Neu5Ac(a2-6)GalNAc = target: Neu5Ac(a2-6)GalNAc
# Outline: as §1
# [30] = target: Neu5Ac(a2-6)GalNAc(b1-4)GlcNAc
# Outline: as §1
# [31] = target: Neu5Ac(a2-6)GalNAc(b1-4)GlcNAc6S
# Outline: as §1
# [32] = target: Neu5Ac(a2-6)GlcNAc(b1-4)GlcNAc
# Outline: as §1
# [33] = target: Neu5Ac(a2-6)GlcNAc(b1-4)GlcNAc(b1-4)GlcNAc
# Outline: as §1
# Neu5Ac(a2-8)Neu5Ac = target: Neu5Ac(a2-8)Neu5Ac
# Outline: as §1
# [34] = target: Neu5Ac(a2-8)Neu5Ac(a2-3)Gal(b1-3)GalNAc(b1-4)[Neu5Ac(a2-8)Neu5Ac(a2-3)]Gal(b1-4)Glc
# Outline: as §1
# [35] = target: Neu5Ac(a2-8)Neu5Ac(a2-3)Gal(b1-4)Glc
# Outline: as §1
# [36] = target: Neu5Ac(a2-8)Neu5Ac(a2-3)[Gal(b1-3)GalNAc(b1-4)]Gal(b1-4)Glc
# Outline: as §1
# [37] = target: Neu5Ac(a2-8)Neu5Ac(a2-3)[GalNAc(b1-4)]Gal(b1-4)Glc
# Outline: as §1
# [38] = target: Neu5Ac(a2-8)Neu5Ac(a2-8)Neu5Ac
# Outline: as §1
# [39] = target: Neu5Ac(a2-8)Neu5Ac(a2-8)Neu5Ac(a2-3)Gal(b1-4)Glc
# Outline: as §1
# [40] = target: Neu5Ac(a2-8)Neu5Ac(a2-8)Neu5Ac(a2-3)[GalNAc(b1-4)]Gal(b1-4)Glc
# Outline: as §1
# [41] = target: Neu5Ac(a2-8)Neu5Ac(a2-8)Neu5Ac(a2-8)Neu5Ac(a2-3)[GalNAc(b1-4)]Gal(b1-4)Glc
# Outline: as §1
# [42] = target: Neu5Ac(b2-6)Gal(b1-4)GlcNAc
# Outline: as §1
# Neu5Ac(b2-6)GalNAc = target: Neu5Ac(b2-6)GalNAc
# Outline: as §1
# [43] = target: Neu5Ac9Ac(a2-3)Gal(b1-3)GlcNAc
# Outline: as §1
# [44] = target: Neu5Ac9Ac(a2-3)Gal(b1-4)GlcNAc
# Outline: as §1
# [45] = target: Neu5Ac9Ac(a2-6)Gal(b1-4)GlcNAc
# Outline: as §1
# [46] = target: Neu5Gc(a2-3)Gal(b1-3)GlcNAc
# Outline: as §1
# [47] = target: Neu5Gc(a2-3)Gal(b1-3)[Fuc(a1-4)]GlcNAc
# Outline: as §1
# Neu5Gc(a2-3)Gal(b1-4)Glc = target: Neu5Gc(a2-3)Gal(b1-4)Glc
# Outline: as §1
# [48] = target: Neu5Gc(a2-3)Gal(b1-4)GlcNAc
# Outline: as §1
# [49] = target: Neu5Gc(a2-3)Gal(b1-4)[Fuc(a1-3)]GlcNAc
# Outline: as §1
# [50] = target: Neu5Gc(a2-6)Gal(b1-4)GlcNAc
# Outline: as §1
# Neu5Gc(a2-6)GalNAc = target: Neu5Gc(a2-6)GalNAc
# Outline: as §1
# [51] = target: Neu5Gc(b2-6)Gal(b1-4)GlcNAc
# Outline: as §1
binder,measurement,setting,value
B1,glycan array binding signal (z-score),[1],-0.184
same,glycan array binding signal (z-score),[2],0.044
same,glycan array binding signal (z-score),Neu5Ac(a2-3)GalNAc,-0.238
same,glycan array binding signal (z-score),[3],-0.3
same,glycan array binding signal (z-score),[4],-0.203
same,glycan array binding signal (z-score),[5],-0.157
same,glycan array binding signal (z-score),[6],1.58
same,glycan array binding signal (z-score),[7],-0.142
same,glycan array binding signal (z-score),Neu5Ac(a2-6)Gal,-0.192
same,glycan array binding signal (z-score),[8],-0.236
same,glycan array binding signal (z-score),Neu5Ac(a2-6)Gal(b1-4)Glc,-0.296
same,glycan array binding signal (z-score),[9],-0.278
same,glycan array binding signal (z-score),[10],-0.05
same,glycan array binding signal (z-score),[11],-0.115
same,glycan array binding signal (z-score),[12],-0.184
same,glycan array binding signal (z-score),[13],-0.258
same,glycan array binding signal (z-score),[14],-0.305
same,glycan array binding signal (z-score),[15],-0.073
same,glycan array binding signal (z-score),[16],-0.474
same,glycan array binding signal (z-score),[17],-0.159
same,glycan array binding signal (z-score),[18],0.021
same,glycan array binding signal (z-score),[19],-0.207
same,glycan array binding signal (z-score),[20],-0.051
same,glycan array binding signal (z-score),[21],-0.229
same,glycan array binding signal (z-score),[22],0.044
same,glycan array binding signal (z-score),[23],-0.02
same,glycan array binding signal (z-score),[24],-0.077
same,glycan array binding signal (z-score),[25],-0.218
same,glycan array binding signal (z-score),[26],0.127
same,glycan array binding signal (z-score),[27],-0.2
same,glycan array binding signal (z-score),[28],0.033
same,glycan array binding signal (z-score),[29],-0.224
same,glycan array binding signal (z-score),Neu5Ac(a2-6)GalNAc,-0.09
same,glycan array binding signal (z-score),[30],-0.165
same,glycan array binding signal (z-score),[31],-0.509
same,glycan array binding signal (z-score),[32],-0.067
same,glycan array binding signal (z-score),[33],0.035
same,glycan array binding signal (z-score),Neu5Ac(a2-8)Neu5Ac,-0.1
same,glycan array binding signal (z-score),[34],-0.385
same,glycan array binding signal (z-score),[35],-0.125
same,glycan array binding signal (z-score),[36],-0.073
same,glycan array binding signal (z-score),[37],-0.312
same,glycan array binding signal (z-score),[38],-0.197
same,glycan array binding signal (z-score),[39],0.02
same,glycan array binding signal (z-score),[40],0.457
same,glycan array binding signal (z-score),[41],0.546
same,glycan array binding signal (z-score),[42],-0.009
same,glycan array binding signal (z-score),Neu5Ac(b2-6)GalNAc,-0.243
same,glycan array binding signal (z-score),[43],-0.284
same,glycan array binding signal (z-score),[44],0.499
same,glycan array binding signal (z-score),[45],-0.208
same,glycan array binding signal (z-score),[46],-0.19
same,glycan array binding signal (z-score),[47],-0.191
same,glycan array binding signal (z-score),Neu5Gc(a2-3)Gal(b1-4)Glc,-0.251
same,glycan array binding signal (z-score),[48],-0.111
same,glycan array binding signal (z-score),[49],-0.134
same,glycan array binding signal (z-score),[50],-0.153
same,glycan array binding signal (z-score),Neu5Gc(a2-6)GalNAc,-0.34
same,glycan array binding signal (z-score),[51],-0.238
